Source: a collection of fitness landscapes (doi:10.1016/j.celrep.2020.107928)
Whole data set: some 81,000 sequences, median “one-hybrid fitness for binding NBS DNA” near -0.1, cut for the highest 2% near 0.36. The list shows a part of the results.

B1: Caulobacter ParB omega fusion; a variant is named by its letters at X, in order, B8GW30 (parent)
chain: MESVVVGEPGMSEGRRGLGRGLSALLGEVDAAPAQAPGEQLGGSREAPIEILQRNPDQPRRTFREEDLEDLSNSIREKGVLQPILVRPSPDTAGEYQIVAGERAWRAAQRAGLKTVPIMVRELDDLAVLEIGIIENVQRADLNVLEEALSYKVLMEKFERTQENIAQTIGKSXSHVANXMRLLXLPDEVQSYLVSGELTAXHARAIAAAADPVALAKQIIEGGLSVRETEALARKAPNLSAGKSKGGRPPRVKDTDTQALESDLSSVLGLDVSIDHRGSTGTLTITYATLEQLDDLCNRLTRGI

Variants of: B1
Experiment: one-hybrid fitness for binding NBS DNA (the Noc-binding site; scaled: cognate 1, non-cognate 0); higher = stronger binding
Conditions: with NBS DNA site
How it was run: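 Values were rescaled so that cognate is 1 and non-cognate is 0. Each is a fitness, the log change in a variant's read ratio to wild type from Illumina reads of plasmids before and after selection, with three replicate libraries pooled and variants under 10 reads dropped. Selection of the Caulobacter ParB libraries, four specificity codons randomised, used E. coli USO with a HIS3 reporter, site 19 bp from the promoter, on M9-minus-histidine with 0.1 mM IPTG and 5 mM 3-AT for 48 hours at 37°C.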

Variant	one-hybrid fitness for binding NBS DNA
DNQG	≤ 0.2
LTAN	≤ 0.2
RDLG	≤ 0.2
HKTL	≤ 0.2
PVDC	≤ 0.2
MASC	≤ 0.2
TSDD	≤ 0.2
MADT	≤ 0.2
KRIT	0.481
YDFY	≤ 0.2
QLKR	0.932
QWAN	≤ 0.2
VYYG	≤ 0.2
NHDF	≤ 0.2
ACPD	≤ 0.2
SSTA	≤ 0.2
ITFT	≤ 0.2
RAKK	≤ 0.2
PSQK	≤ 0.2
RFAA	≤ 0.2
TCRP	≤ 0.2
FGPG	≤ 0.2
CAVP	≤ 0.2
GYSC	≤ 0.2

Variant	one-hybrid fitness for binding NBS DNA
PGHR	≤ 0.2
KAPV	≤ 0.2
YQPP	≤ 0.2
PMEV	≤ 0.2
EEST	≤ 0.2
FQRM	≤ 0.2
PATI	≤ 0.2
TLRS	≤ 0.2
HRAD	≤ 0.2
RNPV	≤ 0.2
PSVS	≤ 0.2
LPNT	≤ 0.2
AWTF	≤ 0.2
KLRI	≤ 0.2
VLAG	≤ 0.2
ANYT	≤ 0.2
TYVR	≤ 0.2
CFLW	≤ 0.2
ESDN	≤ 0.2
ISRY	≤ 0.2
LHHR	≤ 0.2
KVGG	≤ 0.2
KDRR	≤ 0.2
PEHV	≤ 0.2

Variant	one-hybrid fitness for binding NBS DNA
WKIC	≤ 0.2
QDRV	≤ 0.2
PVVN	≤ 0.2
NLFC	≤ 0.2
IRFG	≤ 0.2
RQWM	≤ 0.2
TSQS	≤ 0.2
TYNL	≤ 0.2
GQGT	≤ 0.2
GCTG	≤ 0.2
TFKS	≤ 0.2
REDC	≤ 0.2
IAVF	≤ 0.2
TNRC	≤ 0.2
LSKF	≤ 0.2
VDCN	≤ 0.2
WKHL	≤ 0.2
LGSG	≤ 0.2
KMDK	≤ 0.2
IHYR	≤ 0.2
AMML	≤ 0.2
ADPY	≤ 0.2
LFPW	≤ 0.2
VAMC	≤ 0.2

Variant	one-hybrid fitness for binding NBS DNA
NINM	≤ 0.2
TCRY	≤ 0.2
DSEM	≤ 0.2
TQLL	≤ 0.2
GVCN	≤ 0.2
GASL	≤ 0.2
GLHC	≤ 0.2
RLPM	≤ 0.2
QYTF	≤ 0.2
RTSL	≤ 0.2
TSHE	≤ 0.2
RHAP	≤ 0.2
TLYP	≤ 0.2
RRNE	≤ 0.2
QMSD	≤ 0.2
YSRP	≤ 0.2
SCHR	≤ 0.2
QMCG	≤ 0.2
YSAN	≤ 0.2
QNTS	≤ 0.2
LRAD	≤ 0.2
MTSP	≤ 0.2
REVT	≤ 0.2
RVHY	≤ 0.2

Variant	one-hybrid fitness for binding NBS DNA
RWTN	≤ 0.2
LQKG	≤ 0.2
RPKL	≤ 0.2
RQLR	0.359
LQEM	≤ 0.2
ALHR	≤ 0.2
KVSV	≤ 0.2
TLAR	≤ 0.2
RVHQ	≤ 0.2
AYYY	≤ 0.2
YSGD	≤ 0.2
VPPC	≤ 0.2
VDTE	≤ 0.2
TMHK	≤ 0.2
SIRR	≤ 0.2
DGTR	≤ 0.2
SLKL	≤ 0.2
QCGV	0.221
QFRV	≤ 0.2
ATPY	≤ 0.2
RCMT	0.492
SLSR	≤ 0.2
RARL	≤ 0.2
EKVL	≤ 0.2

Variant	one-hybrid fitness for binding NBS DNA
LGIW	≤ 0.2
QKCR	0.519
RQPT	≤ 0.2
AFTL	≤ 0.2
FPTC	≤ 0.2
LETL	≤ 0.2
NTLW	≤ 0.2
MYND	≤ 0.2
KCGS	≤ 0.2
PMHL	≤ 0.2
HLGS	≤ 0.2
SCMA	≤ 0.2
IDLM	≤ 0.2
KISS	≤ 0.2
ILVC	≤ 0.2
QIAI	≤ 0.2
PWTC	≤ 0.2
KTAM	≤ 0.2
VQIN	≤ 0.2
QSKQ	0.351
LVPR	≤ 0.2
LSLW	≤ 0.2
EASC	≤ 0.2
HADT	≤ 0.2

Variant	one-hybrid fitness for binding NBS DNA
HGTS	≤ 0.2
TKKK	≤ 0.2
GGAG	≤ 0.2
RMQI	≤ 0.2
RPDF	≤ 0.2
STED	≤ 0.2
VLFY	≤ 0.2
NLEH	≤ 0.2
HQNL	≤ 0.2
REMN	≤ 0.2
WTNM	≤ 0.2
RVYM	≤ 0.2
FPQS	≤ 0.2
QVKR	0.786
EFTS	≤ 0.2
LHFC	≤ 0.2
NTDM	≤ 0.2
QPRI	≤ 0.2
PIHG	≤ 0.2
AFDY	≤ 0.2
QTSY	0.296
RLRN	≤ 0.2
RHVR	0.248
LIHK	≤ 0.2

Variant	one-hybrid fitness for binding NBS DNA
TTTC	≤ 0.2
PGPT	≤ 0.2
PHVR	≤ 0.2
PHVC	≤ 0.2
QVWR	≤ 0.2
CLSS	≤ 0.2
FAQW	≤ 0.2
VGLS	≤ 0.2
RKPC	≤ 0.2
DPPI	≤ 0.2
PPST	≤ 0.2
RSWD	≤ 0.2
WTGN	≤ 0.2
HPSQ	≤ 0.2
RFDA	≤ 0.2
TLKA	≤ 0.2
MYIG	≤ 0.2
HSLP	≤ 0.2
VFVT	≤ 0.2
YAAN	≤ 0.2
QHHW	≤ 0.2
FCTR	≤ 0.2
GMSY	≤ 0.2
AWEW	≤ 0.2

Variant	one-hybrid fitness for binding NBS DNA
TMTY	≤ 0.2
APIY	≤ 0.2
RTLL	≤ 0.2
APDC	≤ 0.2
CNPA	≤ 0.2
QSEG	≤ 0.2
PGGE	≤ 0.2
ALYS	≤ 0.2
LPIN	≤ 0.2
LFQC	≤ 0.2
TTNI	≤ 0.2
IVAT	≤ 0.2
ISKR	0.243
QNHC	≤ 0.2
TFYL	≤ 0.2
VSAY	≤ 0.2
LNGT	≤ 0.2
VPRF	≤ 0.2
ATDS	≤ 0.2
PRGG	≤ 0.2
AGTA	≤ 0.2
FPDS	≤ 0.2
KSHL	≤ 0.2
HRKF	≤ 0.2

Variant	one-hybrid fitness for binding NBS DNA
TRKG	≤ 0.2
SAPV	≤ 0.2
VESK	≤ 0.2
RHMV	≤ 0.2
PRLD	≤ 0.2
PWAM	≤ 0.2
SVNM	≤ 0.2
YESV	≤ 0.2
NHQM	≤ 0.2
RTRT	0.704
DWQR	≤ 0.2
HAGY	≤ 0.2
EAAG	≤ 0.2
DQPY	≤ 0.2
THIW	≤ 0.2
AIAG	≤ 0.2
FRYF	≤ 0.2
ATVK	≤ 0.2
PLKE	≤ 0.2
WKQT	≤ 0.2
ESGR	≤ 0.2
SYSD	≤ 0.2
SEMS	≤ 0.2
HSWI	≤ 0.2

Variant	one-hybrid fitness for binding NBS DNA
PEMH	≤ 0.2
QRML	0.219
CYDS	≤ 0.2
GWYG	≤ 0.2
NTKP	≤ 0.2
VCMM	≤ 0.2
GWMV	≤ 0.2
PYQG	≤ 0.2
SDYI	≤ 0.2
FWTR	≤ 0.2
CNWS	≤ 0.2
VPDT	≤ 0.2
LMYA	≤ 0.2
HRAN	≤ 0.2
TQFI	≤ 0.2
FFNM	≤ 0.2
TSKT	≤ 0.2
TIFR	≤ 0.2
QGGC	≤ 0.2
AKHV	≤ 0.2
SMVC	≤ 0.2
LNNE	≤ 0.2
DWKE	≤ 0.2
ALKV	≤ 0.2

Variant	one-hybrid fitness for binding NBS DNA
TDQA	≤ 0.2
PIRV	≤ 0.2
SGFC	≤ 0.2
IGCG	≤ 0.2
VFSF	≤ 0.2
PCRT	≤ 0.2
QEQS	≤ 0.2
PKLN	≤ 0.2
ALCR	≤ 0.2
RMHW	≤ 0.2
QDQP	≤ 0.2
QCNV	≤ 0.2
HKYT	≤ 0.2
YKRY	≤ 0.2
AMDR	≤ 0.2
PQPY	≤ 0.2
PYQA	≤ 0.2
WSLQ	≤ 0.2
PEAF	≤ 0.2
CYPF	≤ 0.2
TLLR	≤ 0.2
MNRA	≤ 0.2
CGGR	≤ 0.2
LDYG	≤ 0.2

Variant	one-hybrid fitness for binding NBS DNA
WQKR	0.279
RCQY	≤ 0.2
EAYD	≤ 0.2
RVIY	≤ 0.2
CMDR	≤ 0.2
QETD	≤ 0.2
TTMR	≤ 0.2
GNDL	≤ 0.2
SYNG	≤ 0.2
NETS	≤ 0.2
KYGS	≤ 0.2
CPPG	≤ 0.2
PRLG	≤ 0.2
TSRA	≤ 0.2
RIKV	≤ 0.2
KQEG	≤ 0.2
WTSA	≤ 0.2
YCSD	≤ 0.2
